# The campaign covered roughly 310,000 compounds. About 2,200 (0.71%) showed an effect of 50% or more. Effects have a minus sign here. The list shows a part of the results.
# Target: human ether-à-go-go-related gene (hERG) potassium channel (human, UniProt Q12809)
# Assay: primary screen, population patch clamp on CHO cells stably expressing hERG
# Sequence of human ether-à-go-go-related gene (hERG) potassium channel (Q12809 whole entry, looked up): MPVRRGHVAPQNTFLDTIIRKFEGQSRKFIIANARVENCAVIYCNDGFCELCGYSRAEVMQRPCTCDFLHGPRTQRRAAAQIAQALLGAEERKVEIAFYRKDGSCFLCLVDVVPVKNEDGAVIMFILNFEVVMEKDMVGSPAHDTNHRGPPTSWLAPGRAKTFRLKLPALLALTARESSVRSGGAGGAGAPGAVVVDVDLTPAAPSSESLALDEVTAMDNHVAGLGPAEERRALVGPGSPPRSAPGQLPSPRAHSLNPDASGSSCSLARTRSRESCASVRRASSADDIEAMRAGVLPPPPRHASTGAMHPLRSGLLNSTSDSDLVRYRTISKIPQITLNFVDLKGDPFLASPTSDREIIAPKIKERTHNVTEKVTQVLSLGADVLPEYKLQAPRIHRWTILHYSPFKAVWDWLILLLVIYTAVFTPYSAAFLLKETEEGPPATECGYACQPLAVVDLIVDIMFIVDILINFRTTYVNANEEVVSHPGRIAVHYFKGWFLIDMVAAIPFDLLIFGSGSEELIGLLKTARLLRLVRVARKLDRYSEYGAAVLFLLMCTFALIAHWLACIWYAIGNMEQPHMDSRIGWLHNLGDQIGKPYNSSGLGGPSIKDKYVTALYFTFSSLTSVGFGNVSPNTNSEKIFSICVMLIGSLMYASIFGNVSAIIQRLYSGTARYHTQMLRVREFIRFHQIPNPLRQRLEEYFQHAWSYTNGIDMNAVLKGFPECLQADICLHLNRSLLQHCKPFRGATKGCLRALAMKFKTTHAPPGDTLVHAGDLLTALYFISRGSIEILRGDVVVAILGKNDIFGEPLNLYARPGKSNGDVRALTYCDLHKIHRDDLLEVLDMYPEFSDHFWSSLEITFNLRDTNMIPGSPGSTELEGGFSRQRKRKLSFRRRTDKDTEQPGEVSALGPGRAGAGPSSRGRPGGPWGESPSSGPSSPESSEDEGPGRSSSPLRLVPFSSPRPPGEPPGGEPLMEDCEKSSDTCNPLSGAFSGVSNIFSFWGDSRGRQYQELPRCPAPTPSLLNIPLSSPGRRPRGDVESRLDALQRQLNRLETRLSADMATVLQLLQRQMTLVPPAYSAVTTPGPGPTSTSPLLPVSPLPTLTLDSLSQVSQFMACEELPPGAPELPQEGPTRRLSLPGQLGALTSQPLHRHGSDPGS
row,Structure (SMILES),"hERG current change (%, negative = inhibition) at 1uM"
1,COc1ccc(C(O)(C2CCCCC2)C(CN2CCOCC2)c2ccccc2)cc1.Cl (stereo not shown),10.6%
2,COc1cccc(Cn2nnc(C(=O)NCc3ccc4c(c3)OCO4)c2N)c1,-2.42%
3,Cl.NC(N)=Nc1nc(-c2ccccc2)c2cc(Cl)ccc2n1,-15.6%
4,CCCCN(CCCC)CC1OCc2ccccc2CO1,-0.951%
5,O=C(Cn1nc(-c2ccc(F)cc2)ccc1=O)Nc1ccc(C(=O)NC2CC2)cc1,2.4%
6,CCc1nnc(NC(=O)C2Cc3ccccc3CN2S(=O)(=O)c2cccs2)s1 (stereo not shown),16.3%
7,CN(C(=O)CN(CCO)CC(=O)N(C)C(C)(C)Cc1ccccc1)C(C)(C)Cc1ccccc1,7.94%
8,Cc1ccc(NC(=S)Nn2cnnc2)cc1,10.7%
9,CCCOc1ccc(C(CC(=O)O)NS(=O)(=O)c2ccc(NC(C)=O)cc2)cc1 (stereo not shown),9.29%
10,O=C(OCC(=O)N1CCOCC1)c1ccccc1SCC(=O)N1CCCC1,5.78%
11,CCc1nnc(NC(=O)c2ccc(N3C(=O)CCC3=O)cc2)s1,11.3%
12,CC(C)NC(C)Cc1ccc(I)cc1.Cl (stereo not shown),-11.4%
13,O=C(CSc1n[nH]c(=O)[nH]c1=O)c1ccccc1[N+](=O)[O-],9.33%
14,CC(=O)N(C)c1ccc(NC(=O)Nc2cccc3ccccc23)cc1,7.56%
15,Cc1ccc(Nc2nc(-c3ccc(C)cc3)c(CC(=O)O)s2)cc1,8.45%
16,COc1ccc(CC(=O)O/N=C(\N)c2ccccc2)cc1OC,9.23%
17,COCCCNC(=S)NNC(=O)c1ccc(S(=O)(=O)N2CCC(C)CC2)cc1,18.5%
18,COc1ccc(NC(=O)COC(=O)c2ccc(-n3cnnn3)cc2)cc1Cl,12.5%
19,COC(=O)CN1C(=O)[C@H]2[C@@H](c3ccc(C)o3)N3C(=O)CN(Cc4ccccc4)C(=O)[C@@]3(Cc3ccccc3)[C@H]2C1=O,0.0835%
20,CS(=O)(=O)NCCNC(=O)c1cc(OCC(F)(F)F)ccc1OCC(F)(F)F,3.72%
21,Cc1ccc(-c2nnc(Nc3ccc(C(=O)N(C)C)cc3)c3ccccc23)cc1S(=O)(=O)NCC1CCCO1 (stereo not shown),-3.87%
22,COc1ccc(/C=N/n2cnc3c([nH]c4ccccc43)c2=O)cc1CO,6.11%

row,Structure (SMILES),"hERG current change (%, negative = inhibition) at 1uM"
1,CCOc1cc(C(=S)N2CCN(C)CC2)ccc1OCC(=O)N1CCOCC1,10.1%
2,CN(C)c1ccc(CNCc2cccnc2)cc1,11%
3,CN(C)CCCNC(=S)Nc1ccc(Br)cc1,10.3%
4,CCOc1ccc(C2CC(=O)N(Nc3ccc([N+](=O)[O-])cc3[N+](=O)[O-])C2=O)cc1 (stereo not shown),-22.6%
5,CCOC(=O)N1CCC(N2CC34C=CC(O3)C(C(=O)Nc3ccc(OCC)cc3)C4C2=O)CC1 (stereo not shown),2.17%
6,CC1CCN(CCCCOc2ccc(Cl)cc2)CC1.O=C(O)C(=O)O,-32.6%
7,Cn1c(Oc2ccc3c(c2)OCO3)nc2c1c(=O)n(Cc1ccccc1)c(=O)n2C,7.68%
8,CC(C)(C)OC(=O)NCCC(=O)N/N=C/c1cccc2cccnc12,11.4%
9,CCCCOP(=O)(c1ccc(N(C)C)cc1)C(O)c1ccc(C(C)C)cc1 (stereo not shown),12.1%
10,Cc1cc(Cl)ccc1OCCCC(=O)NCCc1nnc2ccccn12,2.77%
11,CCn1ncc(C2=NOC(C(=O)Nc3cnn(C45CC6CC(CC(C6)C4)C5)c3)C2)c1C (stereo not shown),3.56%
12,CC1(C)CC(=O)c2cnc(NC(=O)Cc3ccc(Cl)cc3)nc2C1,9.19%
13,Cc1ccc(CNS(=O)(=O)c2c(C(=O)N3CCCCCC3)c(C)n(C)c2C)cc1,13%
14,CCOC(=O)c1ccc(NC(=O)CSc2nnc(CNc3ccc(OC)cc3)n2C)cc1,10.2%
15,COc1ccc(C2CC(c3ccc(Cl)cc3Cl)Nc3nc(N)nn32)cc1OC (stereo not shown),-0.698%
16,Cc1nn(CCCC(=O)Nc2cnn(Cc3ccc(F)cc3)c2)c(C)c1[N+](=O)[O-],11.5%
17,Cc1ccnc2nc(C(=O)OC(C)C(=O)NCc3ccccc3)nn12 (stereo not shown),10.8%
18,COc1ccc(C)cc1NS(=O)(=O)c1cccc2nonc12,2.58%
19,C/C(CCN1CCCCc2nc(C)c(C)cc21)=N\O[C@@H](C)CN1CCCCc2nc(C)c(C)cc21,-1.01%
20,COc1ccc(OC)c(C(O)CNC(=O)CN)c1.Cl (stereo not shown),13.1%
21,Cc1ccc(-c2noc(CSc3nnc(-c4ccccc4)n3C)n2)cc1,9.14%

# Source: paper PMC4336329 (PLoS ONE, 2015)
